Reference: PubChem BioAssay AID485294 (National Center for Advancing Translational Sciences (NCATS), 2010)
The campaign covered roughly 370,000 compounds. About 150 (0.041%) were called active. This list was built around the results that the source calls inconclusive (neither active nor inactive); the mix of calls is not that of the screen. Calls follow the shape of the dose curve; as a rule, active = well fitted inhibition curve with a large enough effect; inconclusive = small, poorly fitted or top-dose-only effect; inactive = flat fitted curve, though single readings scatter. No potency is given beside an inconclusive call; the fits are too rough.

Target: Beta-lactamase (Escherichia coli (strain K12)) (UniProt P00811)
UniProt P00811, sequence (P00811 whole entry, looked up): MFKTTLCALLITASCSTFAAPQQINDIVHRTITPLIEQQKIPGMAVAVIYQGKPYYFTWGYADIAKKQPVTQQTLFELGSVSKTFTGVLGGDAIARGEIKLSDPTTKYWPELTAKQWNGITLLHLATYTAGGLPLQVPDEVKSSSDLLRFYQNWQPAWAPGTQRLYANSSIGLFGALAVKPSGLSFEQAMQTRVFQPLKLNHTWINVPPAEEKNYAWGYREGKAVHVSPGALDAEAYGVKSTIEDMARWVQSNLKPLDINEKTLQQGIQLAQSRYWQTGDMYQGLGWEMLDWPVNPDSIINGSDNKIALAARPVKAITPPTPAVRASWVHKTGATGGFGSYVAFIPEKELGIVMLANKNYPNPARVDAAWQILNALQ
Assay: qHTS Inhibitors of AmpC Beta-Lactamase (assay with detergent); also: nearly all actives have a fitted effect of over 25% in size;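 as to activity change, negative = inhibition: 0% = no-compound wells and -100% = no-enzyme wells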
Conditions: AmpC hydrolysis of nitrocefin, absorbance 480 nm, 0.01% Triton; activity change, negative = inhibition: at 114 µM (top of the series)
How it was run: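 20 mM phosphate pH 7.0 + 0.01% (detergent screen) or 0.0001% Triton X-100; 5.3 nM AmpC reagent; cpd preinc 15 min RT; nitrocefin (800 uM stock) to start; A480 q20 s × 4 min; Activity was normalised to no-enzyme and no-compound control wells.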
Potency is read from the fitted curve at half-maximal effect; tags tell the direction and shape of the fitted curve.

Structure (SMILES) | Potency | activity change, negative = inhibition
COc1ccc(NS(=O)(=O)c2cccc(NC(=O)CCC(=O)c3cccs3)c2)cc1 | inconclusive [inhibitor, single point] | –
CC1Cc2ccccc2N1C(=O)c1ccc2nccnc2c1 (stereo unspecified) | – | inactive: 2.51%
Clc1ccc(-c2csc(N/N=C/c3ccc4c(c3)OCO4)n2)cc1 | inconclusive [inhibitor, full curve, poor fit] | –
O=S(=O)(c1ccc(S(=O)(=O)N2CCCC2)cc1)N1CCCCCC1 | – | inactive: -13.2%
COc1ccc(NC(=O)CN(C)C(=O)c2cn(-c3ccccc3)nc2-c2ccc(OC)cc2)cc1 | inconclusive [inhibitor, full curve, poor fit] | –
CC(C)CNC(=O)c1cccc(NC(=O)c2ccccc2-c2ccccc2C(=O)O)c1 | inconclusive [inhibitor, full curve, poor fit] | –
COCCn1nnnc1CN(CCc1ccccc1)Cc1cc2ccc(C)cc2[nH]c1=O | inconclusive [inhibitor, full curve, poor fit] | –
Cc1occc1C(=O)N/N=C/c1sc(N2CCOCC2)nc1-c1ccccc1 | inconclusive [inhibitor, single point] | –
COc1ccc(N(CC(=O)NCc2ccccc2)S(=O)(=O)c2c(C)nn(C)c2C)cc1 | inconclusive [inhibitor, full curve, poor fit] | –
Nc1ccccc1-c1nnn(CC(=O)N2CCCc3ccccc32)n1 | inconclusive [inhibitor, partial curve, poor fit] | –
CC(C)N(C(=NCc1ccccc1)NC(=O)c1ccccc1)C(C)C | inconclusive [inhibitor, full curve] | –
COc1ccc(C2(CNC(=O)C(=O)Nc3cccc(C(F)(F)F)c3)CCCC2)cc1OC | – | inactive: -5.59%
CCN=C1S/C(=C\c2cn(CC)c3ccccc23)C(=O)N1CC | inconclusive [inhibitor, full curve] | –
Cc1ccc(NC(=O)CSc2ccc(-c3cccnc3)nn2)c(C)c1 | inconclusive [inhibitor, single point] | –
O=C(CN1CCCC1)NC(=O)NC1CCCC1 | – | inactive: -7.69%
O=C(NCCc1ccc(Cl)cc1)c1ccc(CSCc2ccccc2Cl)o1 | – | inactive: 6.89%
CC(C(=O)Nc1ccc(S(=O)(=O)Nc2ncccn2)cc1)N1C(=O)c2ccccc2S1(=O)=O (stereo unspecified) | – | inactive: -10.3%
CC(=O)c1cccc(NC(=O)c2nc(-c3ccc(C)cc3)n3c2CCCCC3)c1 | – | inactive: -3.52%
CCOC(=O)C(C)Sc1nnc2ccc3ccccc3n12 (stereo unspecified) | – | inactive: 13.6%
Cc1ccc(NC(=O)C(=O)NCc2ccc(Cl)cc2)cc1 | – | inactive: 9.31%
CN=C1SC(CC(=O)Nc2sc3c(c2C#N)CCCC3)C(=O)N1C (stereo unspecified) | inconclusive [inhibitor, single point] | –
Cc1cc(CNC(=O)CCc2nnc(CCCCc3ccccc3)o2)nn1C | – | inactive: 5.27%
CCOc1ccc(Br)cc1S(=O)(=O)N1CCC(C(N)=O)CC1 | – | inactive: -5.28%
CC(C)(C)c1ccc(/C=N/NC(=O)c2ccccn2)cc1 | – | inactive: -4.24%

Structure (SMILES) | Potency | activity change, negative = inhibition
CC1CCN(CCCNC(=O)c2cc3c(s2)-c2ccccc2OC3)CC1 | inconclusive [inhibitor, partial curve] | –
COc1ccc2c(c1)CCc1c(C(=O)NC3CCCCC3)noc1-2 | inconclusive [inhibitor, single point] | –
Cc1ccc(/C=N/Nc2cccc3cccnc23)c(O)c1 | – | inactive: 0.23%
CCOc1ccc(Oc2ccc(-c3nnc(-c4ccccc4)o3)cc2[N+](=O)[O-])cc1 | inconclusive [inhibitor, full curve] | –
O=C(Nc1ccn(Cc2ccccc2)n1)c1ccc2c(c1)OCO2 | – | inactive: -1.79%
NC(=O)c1c(NC(=O)c2ccc([N+](=O)[O-])o2)sc2c1CCCC2 | inconclusive [inhibitor, full curve] | –
N#C/C(=C\c1cn(CC(=O)N2CCCCC2)c2ccccc12)C(=O)NCc1ccc2c(c1)OCO2 | inconclusive [inhibitor, full curve, poor fit] | –
Cn1c(=O)c2c(nc(OCCc3ccccc3)n2C)n(C)c1=O | inconclusive [inhibitor, single point] | –
CC1CCCN(C(=O)CNC(=O)c2ccco2)C1 (stereo unspecified) | – | inactive: -4.56%
CC(C)N1C(=O)S/C(=C/c2ccc3c(c2)n(C)c(=O)n3C)C1=O | – | inactive: 0.517%
O=C1CSC(c2ccccc2Cl)N1 (stereo unspecified) | inconclusive [inhibitor, single point] | –
CCCCC12CN3CCN(CC(C3)/C1=N\NC(=O)c1ccccc1N)C2 | inconclusive [inhibitor, single point] | –
Cc1ccccc1N1C(=O)N(c2cccc(C(F)(F)F)c2)C2CS(=O)(=O)CC21 (stereo unspecified) | inconclusive [inhibitor, full curve, poor fit] | –
Cc1cc(C(F)(F)F)nn1CC(=O)N1CCCCC1C (stereo unspecified) | inconclusive [inhibitor, partial curve] | –
CC(CCN1CCN(CCO)CC1)c1ccccc1 (stereo unspecified) | inconclusive [inhibitor, partial curve, poor fit] | –
CCCCN(C)Cc1c(O)ccc2c(-c3ccccc3)cc(=O)oc12 | inconclusive [inhibitor, partial curve] | –
COc1cc(C2C3C(C)N(C)C(=O)N(C)C3N(C)C(=O)N2C)ccc1O (stereo unspecified) | inconclusive [inhibitor, full curve] | –
CCOC(=O)C1(Cc2cccc(OC)c2)CCCN(C(=O)c2cc(CC(C)C)[nH]n2)C1 (stereo unspecified) | – | inactive: -4.97%
COc1ccccc1CN(C(=O)c1ccco1)C(C(=O)NC1CCCC1)c1ccncc1 (stereo unspecified) | inconclusive [inhibitor, full curve, poor fit] | –
COCCN=C1NN=C(c2ccc(NC(C)=O)cc2)CS1 | inconclusive [inhibitor, full curve, poor fit] | –
CC(C)(C)c1ccc(OCCNC(=O)c2ncn[nH]2)cc1 | inconclusive [inhibitor, partial curve, poor fit] | –
COc1ccc(C)c(S(=O)(=O)Nc2ccc(OCC(=O)O)cc2)c1 | inconclusive [inhibitor, partial curve] | –
Nc1ncnc(N2CCc3ccccc32)c1[N+](=O)[O-] | – | inactive: -4.93%
COc1ccc(C(c2sc3nc(C)nn3c2O)N2CCc3ccccc3C2)cc1 (stereo unspecified) | inconclusive [inhibitor, full curve, poor fit] | –

Structure (SMILES) | Potency | activity change, negative = inhibition
Cc1nnn(C23CC4CC(CC(C(=O)NN)(C4)C2)C3)n1 | inconclusive [inhibitor, partial curve] | –
N/C(=N\OC(=O)CCc1ccccc1)c1ccc(Br)cc1 | – | inactive: 3.73%
CCCOc1ccc(C(=O)CCNc2ccc(C)c(Cl)c2)cc1 | inconclusive [inhibitor, full curve, poor fit] | –
CSCCC(NC(=O)c1cccc(C)c1)C(=O)Nc1sccc1C(N)=O (stereo unspecified) | – | inactive: -0.407%
CN(C)C(=O)COC(=O)c1ccccc1NC(=O)c1ccco1 | inconclusive [inhibitor, full curve, poor fit] | –
COc1ccc(-c2nc(CS(=O)CC(=O)N3CCCC3)c(C)o2)cc1 (stereo unspecified) | inconclusive [inhibitor, full curve] | –
COCCn1cc(C(=S)N2CCCCC2)c2ccccc21 | – | inactive: -4.72%
COc1ccccc1C(=O)NNc1ncc(C)s1 | inconclusive [inhibitor, single point] | –
Cc1c(Br)c(C(F)(F)F)nn1CC(=O)NCCCn1ccnc1 | inconclusive [inhibitor, single point] | –
O=C(CCl)NC(=O)NC12CC3CC(CC(C3)C1)C2 | inconclusive [inhibitor, full curve, poor fit] | –
CCCCc1nc2cc(C(=O)N3CCNC(=O)C3CC(=O)OC)ccc2o1 (stereo unspecified) | inconclusive [inhibitor, full curve, poor fit] | –
COc1cc2c(cc1O)CCN(C(=O)c1ccco1)C2C (stereo unspecified) | – | inactive: -4.37%
Cn1c(=O)[nH]c(=O)c2c1nc(CN1CCN(c3ccc(F)cc3)CC1)n2CCCc1ccccc1 | inconclusive [inhibitor, partial curve, poor fit] | –
CCOC(=O)/C(=C\c1ccc([N+](=O)[O-])o1)NC(=O)c1ccccc1 | inconclusive [inhibitor, full curve, poor fit] | –
Cc1ccc(CSc2ncnc3c2cnn3-c2ccccc2)cc1 | inconclusive [inhibitor, full curve, poor fit] | –
Cc1ccc(C(=O)OCC(=O)Nc2ccc3c(c2)OCO3)c(O)c1 | inconclusive [inhibitor, single point] | –
CCOC(=O)Cc1csc(NC(=O)c2c(O)c3ccccc3n(C)c2=O)n1 | – | inactive: -12.8%
COc1cccc2cc(CC(=O)c3ccc(C)cc3C)c(=O)oc12 | – | inactive: 0.707%
CN(CCOc1ccccc1)C(=O)CNC(=O)c1ccc(C(C)(C)C)cc1 | inconclusive [inhibitor, full curve, poor fit] | –
Cc1cccc(/N=C/c2c(O)[nH]c3ccccc23)n1 | – | inactive: -13.8%
CCCCCCn1c(N2CCN(c3ccccc3)CC2)nc2c1c(=O)[nH]c(=O)n2C | – | inactive: 0.344%
CSc1nc(-c2ccc(F)cc2)cc(=O)[nH]1 | inconclusive [inhibitor, partial curve] | –
CCN(CC)CCN(CC(=O)Nc1c(C)cc(C)cc1C)C(=O)c1ccccc1 | inconclusive [inhibitor, full curve, poor fit] | –
